Source: PubChem BioAssay AID485294 (National Center for Advancing Translational Sciences (NCATS), 2010)
Screen size: about 370,000 compounds; about 150 (0.041%) were called active. The inconclusive results got no clear call from the source; some entries with a clear call stand among them for comparison. Calls follow the shape of the dose curve; as a rule, active = well fitted inhibition curve with a large enough effect; inconclusive = small, poorly fitted or top-dose-only effect; inactive = flat fitted curve, though single readings scatter. Potencies of inconclusive entries are left out as doubtful fits.

Each molecule was assayed against Beta-lactamase (Escherichia coli (strain K12)) (UniProt P00811) (assay: qHTS Inhibitors of AmpC Beta-Lactamase (assay with detergent)). Settings: AmpC hydrolysis of nitrocefin, absorbance 480 nm, 0.01% Triton; series mostly up to 114 µM.
In short: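 AmpC (5.3 nM in the dispensed reagent) in 20 mM phosphate pH 7.0 with 0.01% (detergent screen) or 0.0001% Triton X-100 was preincubated with compounds for 15 min at room temperature. Nitrocefin was then added from an 800 uM solution, and hydrolysis was followed at 480 nm.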
Also: nearly all actives have a fitted effect of over 25% in size.
Potency is read from the fitted curve at half-maximal effect; tags tell the direction and shape of the fitted curve.

UniProt P00811, sequence (P00811 whole entry, looked up): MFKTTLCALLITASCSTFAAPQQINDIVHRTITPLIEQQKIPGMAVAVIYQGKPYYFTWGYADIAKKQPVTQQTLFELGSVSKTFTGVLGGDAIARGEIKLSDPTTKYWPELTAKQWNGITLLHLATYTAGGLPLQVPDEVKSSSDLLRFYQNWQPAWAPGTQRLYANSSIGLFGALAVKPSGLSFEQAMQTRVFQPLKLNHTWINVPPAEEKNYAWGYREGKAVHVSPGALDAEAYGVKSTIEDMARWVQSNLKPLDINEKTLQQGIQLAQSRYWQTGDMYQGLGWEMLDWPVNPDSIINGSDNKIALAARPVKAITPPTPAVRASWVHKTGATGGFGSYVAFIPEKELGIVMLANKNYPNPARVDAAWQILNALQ

SMILES | Potency
CCOc1ccc2nc(NC(=S)NCc3ccccc3)sc2c1 | inconclusive [inhibitor, single point]
Cc1cc(C)c(C(N)=O)c(Nc2ccc(F)cc2)n1 | inconclusive [inhibitor, full curve]
COc1ccc(C2C(C(=O)NC(C)C)c3ccccc3C(=O)N2C)cc1OC (configuration not stated) | inactive
CC1CCCN(Cc2nc3c(c(=O)n(C)c(=O)n3C)n2CCc2ccccc2)C1 (configuration not stated) | inconclusive [inhibitor, full curve, poor fit]
O=C(Cc1ccc(O)cc1)NC1CCCCCC1 | inconclusive [inhibitor, full curve, poor fit]
Nc1nc(CSc2ncn[nH]2)nc(Nc2ccc(F)cc2)n1 | inconclusive [inhibitor, full curve, poor fit]
COc1cccc(NC(=O)n2nc(N)cc2-c2ccc(Cl)cc2)c1 | inconclusive [inhibitor, partial curve]
Cn1c(SCC(=O)N2CCOCC2)nnc1-c1ccc(NC(=O)c2ccccc2F)cc1 | inconclusive [inhibitor, single point]
Cc1nc2oc3ccccc3c(=O)c2c(=O)n1Cc1ccccc1 | inconclusive [inhibitor, full curve, poor fit]
COc1ccc(-n2ncc3c2CC(C)(C)CC3NC(=O)CSc2ccccn2)cc1 (configuration not stated) | inactive
CCCn1c(SCC(=O)NCc2ccco2)nnc1C(C)C | inactive
CCN(C(=O)CSc1nnnn1-c1ccccc1)c1c(N)n(Cc2ccccc2)c(=O)[nH]c1=O | inconclusive [inhibitor, full curve, poor fit]
O=C(CSc1ncn[nH]1)Nc1ccc2c(c1)OCCO2 | inconclusive [inhibitor, partial curve, poor fit]
CCOc1cc(CN2CCOCC2)cc(C(C)=O)c1 | inactive
Cc1ccc(SCC(=O)O/N=C(\N)c2cccnc2)cc1 | inconclusive [inhibitor, single point]
CCCN(C(=O)c1cc(CC)c(C)s1)c1c(N)n(Cc2ccccc2)c(=O)[nH]c1=O | inconclusive [inhibitor, full curve]
O=C(O)CC1=C(O)C(=O)N(c2ccccc2)C1c1ccc(Cl)cc1 (configuration not stated) | inconclusive [inhibitor, full curve, poor fit]
CCN1CCc2nc3sc(C(=O)N4CCc5ccccc5C4)c(N)c3cc2C1 | inconclusive [inhibitor, full curve, poor fit]
COc1ccc(CN2CCCCC2C(=O)Nc2ccc(OC)c(OCC(C)C)c2)cc1OC (configuration not stated) | inconclusive [inhibitor, partial curve]
O=C(NCc1nnnn1-c1ccc(F)c(F)c1)c1cc2ccccc2o1 | inconclusive [inhibitor, full curve, poor fit]
Cc1ccnc(NCc2ccccc2O)c1 | inactive
CN1c2ccccc2C(=O)NC1c1ccc(Cl)cc1 (configuration not stated) | inactive
COc1ccc(-c2ccoc2)cc1[C@H]1[C@H]2C=CC[C@@H](C)[C@@H]2C(=O)N1Cc1ccccc1 | inactive
Cc1ccc(CNC(=O)Nc2cccs2)cc1 | inactive

SMILES | Potency
CN(C)C(CNC(=O)CCC(=O)c1ccc(Br)cc1)c1ccccc1 (configuration not stated) | inactive
CCSc1nnc(NC(=O)CC(C)C)s1 | inactive
COc1cc(C(=O)NCC(=O)OCC(=O)Nc2ncc(Cl)cc2Cl)cc(OC)c1OC | inconclusive [inhibitor, partial curve, poor fit]
CCc1ccc(NC(=O)C2=CC(c3ccc(OC)c(OC)c3)=NS(=O)(=O)N2C)cc1 | inactive
CCNC(=O)NC(=O)COC(=O)c1cccc(NS(=O)(=O)/C=C/c2ccccc2)c1 | inconclusive [inhibitor, partial curve, poor fit]
CCOC(=O)N1CCN(C(=O)CN(c2cccc(Cl)c2)S(=O)(=O)c2ccccc2)CC1 | inactive
O=C(COC(=O)c1ccccc1NCCO)NNC(=O)c1cccs1 | inconclusive [inhibitor, full curve, poor fit]
CC(C)c1ccc(NC2CCCN(C(=O)CCCn3cncn3)C2)cc1 (configuration not stated) | inconclusive [inhibitor, full curve, poor fit]
COC(=O)c1ccc(NC(=O)CC2Nc3cc(C)c(C)cc3NC2=O)cc1 (configuration not stated) | inactive
Cc1cc(C)n(-c2nc3ccccc3nc2Nc2ccc(Cl)c(Cl)c2)n1 | inactive
O=C1C(Cl)=C(Nc2ccc3cn[nH]c3c2)C(=O)c2ccccc21 | inactive
Cc1noc(C)c1COc1ccccc1C(=O)NCc1ccccc1Cl | inconclusive [inhibitor, partial curve, poor fit]
Cc1nnc(N/N=C/c2ccccc2F)n1N | inactive
O=C(NCCc1ccc(Cl)cc1)C1=CC=CN2CCS(=O)(=O)N=C12 | inconclusive [inhibitor, full curve, poor fit]
NNC(=O)C1CC1c1ccc(Cl)cc1 (configuration not stated) | inactive
CCOc1ccc(-c2c(=O)n(OCc3nc4ccccc4[nH]3)c3ccccc3[n+]2[O-])cc1 | inactive
CCC(CC)C(=O)c1c[nH]c(C(=O)NCc2ccccn2)c1 | inconclusive [inhibitor, full curve, poor fit]
COc1ccc(C(=O)N2CCN(c3nc(C4CC4)nc4sc(C)c(C)c34)CC2)cc1 | inconclusive [inhibitor, partial curve]
Cc1cccc(Nc2ccccc2C(=O)O)c1C | inactive
Cc1ccc(NC(=O)c2nn(C34CC5CC(CC(C5)C3)C4)cc2[N+](=O)[O-])cc1 | inactive
Cn1c(=O)c2c(nc(SCc3nn[nH]n3)n2Cc2ccccc2F)n(C)c1=O | inconclusive [inhibitor, single point]
CCN1CCN(Cc2ccc(NC(=O)Nc3ccc(SC)cc3)cc2)CC1 | inconclusive [inhibitor, full curve, poor fit]
CCN(CC)c1ccc(/C=N/NC(=O)Nc2ccccc2)cc1 | inconclusive [inhibitor, full curve]
